This passage reports binding results from publication PMC6160385.

Chains of the proteins cited; added tags and fusions are not shown. Lines headed by an entry give the natural chain unless they say otherwise; changes in a name come on top. A line that says so, or that is headed by a name, gives the form on record, which may keep a tag or linker. Residues count along the entry.
Flag-β-TRCP (Q9Y297, form named): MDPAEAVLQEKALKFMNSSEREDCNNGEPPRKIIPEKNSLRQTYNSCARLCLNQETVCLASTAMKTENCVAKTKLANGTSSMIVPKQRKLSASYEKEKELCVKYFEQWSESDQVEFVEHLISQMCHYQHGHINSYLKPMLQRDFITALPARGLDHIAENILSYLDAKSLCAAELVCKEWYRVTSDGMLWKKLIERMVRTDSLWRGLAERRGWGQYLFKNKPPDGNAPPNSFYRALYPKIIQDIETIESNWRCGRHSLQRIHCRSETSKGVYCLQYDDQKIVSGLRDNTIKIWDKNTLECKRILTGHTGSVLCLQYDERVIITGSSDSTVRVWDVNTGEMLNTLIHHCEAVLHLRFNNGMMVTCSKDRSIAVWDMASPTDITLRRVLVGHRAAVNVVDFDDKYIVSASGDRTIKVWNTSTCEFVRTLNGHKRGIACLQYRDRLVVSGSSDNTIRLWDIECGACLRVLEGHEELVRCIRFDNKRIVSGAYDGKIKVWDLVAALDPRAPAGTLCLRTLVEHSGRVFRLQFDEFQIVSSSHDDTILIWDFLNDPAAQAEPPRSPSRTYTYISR
Flag-β-TRCP-R474A (Q9Y297, form named): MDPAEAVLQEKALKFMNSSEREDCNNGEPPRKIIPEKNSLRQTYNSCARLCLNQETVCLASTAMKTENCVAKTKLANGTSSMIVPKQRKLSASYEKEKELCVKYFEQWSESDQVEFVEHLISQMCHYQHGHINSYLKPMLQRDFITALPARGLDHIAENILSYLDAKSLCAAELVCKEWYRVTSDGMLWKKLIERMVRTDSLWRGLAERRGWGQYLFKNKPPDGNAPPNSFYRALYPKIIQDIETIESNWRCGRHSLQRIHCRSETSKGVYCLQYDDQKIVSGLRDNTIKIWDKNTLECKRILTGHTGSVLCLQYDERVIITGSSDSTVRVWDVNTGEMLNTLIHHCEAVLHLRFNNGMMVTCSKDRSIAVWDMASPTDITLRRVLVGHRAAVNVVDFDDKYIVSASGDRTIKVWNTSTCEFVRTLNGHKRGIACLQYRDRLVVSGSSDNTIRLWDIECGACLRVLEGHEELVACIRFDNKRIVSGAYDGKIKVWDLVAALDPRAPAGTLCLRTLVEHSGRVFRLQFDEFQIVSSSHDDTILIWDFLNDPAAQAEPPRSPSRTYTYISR
UniProt Q13619: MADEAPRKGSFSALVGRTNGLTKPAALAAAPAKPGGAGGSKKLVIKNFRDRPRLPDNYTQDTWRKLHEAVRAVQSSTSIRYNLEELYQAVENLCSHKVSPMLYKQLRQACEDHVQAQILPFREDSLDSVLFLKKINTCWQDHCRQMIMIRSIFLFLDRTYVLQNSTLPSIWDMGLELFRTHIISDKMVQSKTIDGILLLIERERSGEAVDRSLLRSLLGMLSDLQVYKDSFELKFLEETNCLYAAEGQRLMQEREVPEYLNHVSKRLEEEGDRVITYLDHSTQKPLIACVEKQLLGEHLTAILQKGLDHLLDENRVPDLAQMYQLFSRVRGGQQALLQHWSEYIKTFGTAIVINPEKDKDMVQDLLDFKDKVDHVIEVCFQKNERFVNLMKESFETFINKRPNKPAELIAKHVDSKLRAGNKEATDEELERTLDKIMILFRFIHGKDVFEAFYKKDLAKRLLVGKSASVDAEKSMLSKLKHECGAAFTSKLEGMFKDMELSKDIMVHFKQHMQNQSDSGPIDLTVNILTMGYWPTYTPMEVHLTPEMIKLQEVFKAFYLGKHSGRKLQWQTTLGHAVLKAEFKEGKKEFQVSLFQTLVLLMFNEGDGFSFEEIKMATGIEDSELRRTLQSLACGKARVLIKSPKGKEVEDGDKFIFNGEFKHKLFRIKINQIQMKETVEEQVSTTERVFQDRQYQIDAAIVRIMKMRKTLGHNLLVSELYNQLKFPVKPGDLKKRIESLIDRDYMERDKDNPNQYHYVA
UniProt P63208: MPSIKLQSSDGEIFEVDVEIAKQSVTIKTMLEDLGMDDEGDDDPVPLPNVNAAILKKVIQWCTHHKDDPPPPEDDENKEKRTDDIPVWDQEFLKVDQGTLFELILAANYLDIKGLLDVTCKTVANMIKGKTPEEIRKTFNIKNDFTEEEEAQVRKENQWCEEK
UniProt Q13616: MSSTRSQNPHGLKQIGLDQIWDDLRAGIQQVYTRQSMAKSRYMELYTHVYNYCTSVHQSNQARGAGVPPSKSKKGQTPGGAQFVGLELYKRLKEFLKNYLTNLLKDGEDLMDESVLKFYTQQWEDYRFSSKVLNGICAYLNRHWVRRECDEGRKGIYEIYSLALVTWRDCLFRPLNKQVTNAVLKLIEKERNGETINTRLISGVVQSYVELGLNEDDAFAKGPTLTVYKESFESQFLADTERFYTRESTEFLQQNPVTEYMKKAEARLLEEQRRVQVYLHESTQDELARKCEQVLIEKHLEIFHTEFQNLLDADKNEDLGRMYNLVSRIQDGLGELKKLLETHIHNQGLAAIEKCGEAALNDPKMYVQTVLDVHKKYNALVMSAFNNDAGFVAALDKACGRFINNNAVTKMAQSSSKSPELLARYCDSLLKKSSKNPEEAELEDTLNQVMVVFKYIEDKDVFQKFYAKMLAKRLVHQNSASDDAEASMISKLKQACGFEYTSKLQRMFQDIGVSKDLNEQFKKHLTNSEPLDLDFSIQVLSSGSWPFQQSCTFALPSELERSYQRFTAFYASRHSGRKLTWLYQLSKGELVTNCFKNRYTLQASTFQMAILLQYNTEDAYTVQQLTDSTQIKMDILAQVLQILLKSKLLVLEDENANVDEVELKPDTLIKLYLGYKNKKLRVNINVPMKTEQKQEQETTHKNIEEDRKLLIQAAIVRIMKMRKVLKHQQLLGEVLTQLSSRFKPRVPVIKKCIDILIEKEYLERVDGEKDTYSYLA
UniProt Q13617: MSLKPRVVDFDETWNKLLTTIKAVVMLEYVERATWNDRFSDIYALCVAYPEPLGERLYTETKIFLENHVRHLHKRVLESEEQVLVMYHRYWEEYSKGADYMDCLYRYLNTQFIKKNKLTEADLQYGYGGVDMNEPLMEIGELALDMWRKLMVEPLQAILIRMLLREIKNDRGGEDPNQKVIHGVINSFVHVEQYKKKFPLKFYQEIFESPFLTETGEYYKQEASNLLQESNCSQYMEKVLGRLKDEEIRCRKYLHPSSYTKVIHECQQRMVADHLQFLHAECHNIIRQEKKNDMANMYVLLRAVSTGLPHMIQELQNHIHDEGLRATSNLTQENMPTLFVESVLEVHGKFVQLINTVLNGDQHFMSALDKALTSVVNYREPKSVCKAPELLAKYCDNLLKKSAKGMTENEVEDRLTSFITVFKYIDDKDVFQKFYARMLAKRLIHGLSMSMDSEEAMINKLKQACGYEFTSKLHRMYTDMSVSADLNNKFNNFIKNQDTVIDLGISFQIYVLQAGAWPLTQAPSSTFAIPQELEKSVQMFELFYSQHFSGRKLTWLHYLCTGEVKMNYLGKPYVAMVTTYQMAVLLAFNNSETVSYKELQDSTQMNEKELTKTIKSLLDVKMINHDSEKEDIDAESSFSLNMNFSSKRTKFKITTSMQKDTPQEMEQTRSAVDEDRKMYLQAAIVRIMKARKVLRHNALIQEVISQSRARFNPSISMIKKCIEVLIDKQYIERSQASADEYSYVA
UniProt Q969H0: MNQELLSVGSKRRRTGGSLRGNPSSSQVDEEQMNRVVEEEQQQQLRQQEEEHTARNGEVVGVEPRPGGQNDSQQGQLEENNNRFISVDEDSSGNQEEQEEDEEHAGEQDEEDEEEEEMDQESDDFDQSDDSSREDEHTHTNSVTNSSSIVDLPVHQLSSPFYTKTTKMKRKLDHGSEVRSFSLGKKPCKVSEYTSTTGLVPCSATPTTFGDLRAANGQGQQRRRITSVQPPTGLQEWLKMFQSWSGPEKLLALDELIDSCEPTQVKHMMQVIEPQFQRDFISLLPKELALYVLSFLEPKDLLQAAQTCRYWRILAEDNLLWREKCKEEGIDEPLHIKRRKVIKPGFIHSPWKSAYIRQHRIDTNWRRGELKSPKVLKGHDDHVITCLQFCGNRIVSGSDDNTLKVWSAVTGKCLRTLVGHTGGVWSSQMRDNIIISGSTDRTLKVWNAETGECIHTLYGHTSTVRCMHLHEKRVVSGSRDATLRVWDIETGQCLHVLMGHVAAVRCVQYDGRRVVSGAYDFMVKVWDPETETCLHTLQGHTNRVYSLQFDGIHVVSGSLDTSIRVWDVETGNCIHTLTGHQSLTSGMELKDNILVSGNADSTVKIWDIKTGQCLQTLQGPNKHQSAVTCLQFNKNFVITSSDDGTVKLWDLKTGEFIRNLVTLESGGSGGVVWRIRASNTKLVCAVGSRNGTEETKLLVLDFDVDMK
UniProt Q9ULT6, residues 56-936: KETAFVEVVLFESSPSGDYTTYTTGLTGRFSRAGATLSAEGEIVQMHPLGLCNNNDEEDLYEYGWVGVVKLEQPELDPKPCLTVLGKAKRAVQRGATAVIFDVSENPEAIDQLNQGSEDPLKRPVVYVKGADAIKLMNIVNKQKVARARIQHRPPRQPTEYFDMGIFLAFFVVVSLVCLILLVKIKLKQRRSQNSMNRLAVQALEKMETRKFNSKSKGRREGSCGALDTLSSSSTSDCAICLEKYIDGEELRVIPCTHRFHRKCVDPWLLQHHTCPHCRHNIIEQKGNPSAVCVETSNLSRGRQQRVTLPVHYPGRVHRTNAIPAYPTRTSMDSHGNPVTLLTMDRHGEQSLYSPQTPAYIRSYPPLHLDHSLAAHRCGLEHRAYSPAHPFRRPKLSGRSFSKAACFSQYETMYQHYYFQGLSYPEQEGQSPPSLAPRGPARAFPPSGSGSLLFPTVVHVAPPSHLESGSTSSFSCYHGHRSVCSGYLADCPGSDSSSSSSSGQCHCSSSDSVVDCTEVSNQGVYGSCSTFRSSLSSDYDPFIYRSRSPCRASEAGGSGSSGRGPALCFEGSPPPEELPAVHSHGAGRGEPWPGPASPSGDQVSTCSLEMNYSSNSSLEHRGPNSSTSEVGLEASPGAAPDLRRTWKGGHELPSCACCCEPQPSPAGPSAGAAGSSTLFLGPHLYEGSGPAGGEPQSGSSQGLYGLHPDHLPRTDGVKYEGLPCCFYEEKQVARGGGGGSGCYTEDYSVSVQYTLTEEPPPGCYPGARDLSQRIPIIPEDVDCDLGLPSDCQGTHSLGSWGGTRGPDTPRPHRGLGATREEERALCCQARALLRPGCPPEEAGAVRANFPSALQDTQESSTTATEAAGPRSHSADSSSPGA
UniProt Q68DV7, residues 24-783: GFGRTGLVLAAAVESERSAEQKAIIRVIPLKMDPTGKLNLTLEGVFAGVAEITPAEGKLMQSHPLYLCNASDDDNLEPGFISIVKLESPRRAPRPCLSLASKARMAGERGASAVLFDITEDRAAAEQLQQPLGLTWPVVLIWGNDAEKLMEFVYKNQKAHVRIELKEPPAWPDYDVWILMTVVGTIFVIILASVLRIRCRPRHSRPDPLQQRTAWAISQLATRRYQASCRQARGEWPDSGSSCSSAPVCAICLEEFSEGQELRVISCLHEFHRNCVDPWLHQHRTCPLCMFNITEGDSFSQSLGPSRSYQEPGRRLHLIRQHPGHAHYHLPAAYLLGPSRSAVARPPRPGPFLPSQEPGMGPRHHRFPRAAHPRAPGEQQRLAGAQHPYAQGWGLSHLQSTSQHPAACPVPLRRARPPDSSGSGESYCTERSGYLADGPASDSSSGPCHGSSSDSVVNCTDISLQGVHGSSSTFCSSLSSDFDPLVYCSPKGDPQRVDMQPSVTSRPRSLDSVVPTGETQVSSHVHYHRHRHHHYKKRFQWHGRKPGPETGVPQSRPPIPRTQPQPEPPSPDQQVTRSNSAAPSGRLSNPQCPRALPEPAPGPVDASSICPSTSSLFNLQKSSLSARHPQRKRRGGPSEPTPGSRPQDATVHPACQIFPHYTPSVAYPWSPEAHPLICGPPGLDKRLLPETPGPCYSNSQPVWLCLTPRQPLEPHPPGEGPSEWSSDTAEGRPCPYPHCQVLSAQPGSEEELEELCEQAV

Test [1] deals with Flag-β-TRCP (UniProt Q9Y297). Kind of test: co-IP; HeLa cells co-transfected, MG132 10 μmol/L for 12 h before harvest; lysis in EBC buffer, HA- or Flag-conjugated beads 3-4 h at 4°C, washes in NETN buffer; immunoblot. (A western blot detects proteins with antibodies after separation by electrophoresis.)
The target in another test is Myc-Cullin 4A (UniProt Q13619). The description is as above.
Another test concerns the target Myc-Cullin 5 (UniProt Q93034). The description is as above.
A further test addresses Myc-Skp1 (UniProt P63208). The description is as above.
Another test deals with Myc-Cullin 1 (UniProt Q13616). The description is as above.
Another test addresses Myc-Cullin 3 (UniProt Q13618). Described as above.
A further test has as its target Myc-Cullin 2 (UniProt Q13617). The test is described as above.
Test [2] deals with Flag-β-TRCP (UniProt Q9Y297). As to the kind of experiment: co-IP; HEK293T cells transfected, MG132 10 μmol/L for 12 h before harvest; HA- or Flag-conjugated beads; immunoblot.
In test [3] the target is Flag-β-TRCP (UniProt Q9Y297). Kind of test: co-IP; HeLa cells transfected with ZNRF3 wild type or degron mutants and β-TRCP; immunoblot of IP and WCL.
Test [4] concerns the target FBW7 of the GST pull-down panel of F-box proteins (UniProt Q969H0). Kind of test: pull-down; GST pull-down from HEK293T cells transfected with a panel of F-box proteins and ZNRF3, MG132 10 μmol/L for 12 h; 1 mg lysate with glutathione-sepharose 3-4 h at 4°C, washes in NETN buffer; immunoblot.
Test [5] has as its target β-TRCP1 of the GST pull-down panel of F-box proteins (UniProt Q9Y297). The test is described as above.
Test [6] concerns the target Flag-β-TRCP (UniProt Q9Y297). Kind of test: co-IP; HEK293 cells transfected with ZNRF3 and β-TRCP; cell lysates without phosphatase treatment; immunoblot.
The target in test [7] is Flag-β-TRCP (UniProt Q9Y297). Kind of test: co-IP; RNF43 (wild type or DSG degron mutant) with β-TRCP1 (wild type or R474A) in transfected cells; Figs. S1C, S1D and S3B, whose legends were not shown; told together with the co-IPs of Figs. 2C and 4B.
The target of another test is Flag-β-TRCP-R474A (UniProt Q9Y297). The description is as above.

Results are given in words; binding and its absence hold for the method and conditions named. In cells and extracts the contact can be indirect. Some results given as binding are weak or reduced against the parent protein; the word gives no strength.

For the substance HA-ZNRF3 (from UniProt Q9ULT6 56-936), the binding result with Flag-β-TRCP [1] was “binds”; with Myc-Cullin 4A it was “no binding”; with Myc-Cullin 5, “no binding”; with Myc-Skp1 it was “binds”; with Myc-Cullin 1 it was “binds”; with Myc-Cullin 3 it was “no binding”. Further, the binding entry in the test with Myc-Cullin 2 is “no binding”; in the test with Flag-β-TRCP [2] it was “binds”; with Flag-β-TRCP [3], “binds”; in [4] it was “no binding”; in test [5], “binds”; in the test with Flag-β-TRCP [6], “binds”.

As to HA-RNF43 (from UniProt Q68DV7 24-783), the binding result with Flag-β-TRCP [7] and with Flag-β-TRCP-R474A was “binds” each time.
